Reference: the supplement of paper PMC10338343
± gives the standard deviation. Over roughly 6,600 sequences, “pre-steady-state target cleavage rate” has its median near 0.07; the highest 2% begin near 0.72. The entries are a selection whose mix differs from that of the whole data set.

What follows are sequences tested on MIWI (PIWIL1) piRISC loaded with Kctd7 piRNA (30 nt) (assay: pre-steady-state target cleavage rate (min^-1); MIWI and MILI are mouse PIWI proteins and EfPiwi is from a freshwater sponge; tags in brackets are library labels; higher = faster piRNA-guided slicing of the target). Conditions: guide: Kctd7 piRNA 5'p-UGUUAAUCUCUCAGAGAAGGUGACAGUGAU; auxiliary factor: 500 nM mouse GTSF1.
Outline: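 At 33 °C in HEPES–potassium acetate buffer, a transcribed, DNA-blocked target RNA library […] was exposed for 0–8 or 0–960 min to 1 nM active affinity-purified piRISC carrying a single synthetic guide, with or without 500 nM GTSF1 partner protein. Uncleaved targets were sequenced and normalised to depth and to weakly complementary targets. With three trials pooled and k3 capped at 0.0001 min^-1, a burst-and-steady-state fit produced the pre-steady-state cleavage rate.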
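Also: 1 nM active piRISC with 0.1 nM target library at 33 °C single turnover.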

Sequence	pre-steady-state target cleavage rate
UAGUGUGUCACCUUGCUCUGAGAGAUUAACA	0.231 ± 0.04
UACACUGUCACCUUCUCUGAGAAGAUUAACA	0.0272 ± 0.0089
AUCACUGUCACCUUCUCUGAGUCAUUUUGA	0.0042 ± 0.0032
UAGUGACAGUCGCUUCUCUGAGAGAUUAACA	0.462 ± 0.029
UACACUGUCACCUUCAGUGAGAGAUUAACA	0.0638 ± 0.013
UAGUCUGUCACCUUCUCUGAUGAGAUUAACA	0.00956 ± 0.0041
UACACACUCACCUUCUCUGAGAGAUUAACA	0.568 ± 0.044
UAGACUGUCUGGUUCUCUGAGAGAUUAUGA	< 0.0001
UUCACUGUCAGCUUCUCUGUGAGAUUAACA	0.237 ± 0.012
UAGUGACAGACCUUCUCUGAGAGAAAUACA	0.00954 ± 0.0041
UAGUGACACACCUUCUCUGAGAGGAUUAACA	0.168 ± 0.021
UAGUGACACACCUUCUCUCAGAGAUUUACA	0.0226 ± 0.0068
UUCACUGUCACCUUCACUGUGAGAUUAACA	0.156 ± 0.013
AUCACUGAGUCCUUCUCUGAGAGAUUUUGA	0.0434 ± 0.013
UAGUCAGUCACCUUCUCUGAGAGAUUUUGA	0.0543 ± 0.016
UUCACUGUCACCUUCUCAGAGAGAUAAACA	0.0742 ± 0.01
UACUCUGUCACCUUCUCUGAGAGAAUAACA	0.523 ± 0.075
UACACUGUCUCCUUCUGUGAGAGAUUAACA	0.427 ± 0.029
UAGUCUGUCACCAUCUCUGAGAGAUUAAGA	0.0769 ± 0.013
UACACUGUCACCUUAUCUGAGAGAUUAACA	0.548 ± 0.023
UACACUGUCACCUUGUCUGAGAGAUUAUGA	0.163 ± 0.04
UAGUGACAGACGUUCUCUGAGAGUUUAACA	0.00697 ± 0.0027
UAGACUCUGACCUUCUCUGAGAGAUUAACA	0.0488 ± 0.0073
UUCUGAGUCACCUUCUCUGAGAGAUUAAGA	0.15 ± 0.022
UAGUCUGUGACCUUCUCUGAGACAUUAACA	0.0359 ± 0.0047

Sequence	pre-steady-state target cleavage rate
UUCACUGUCACCUACUCUGAGAGUUUAACA	0.314 ± 0.041
UAGUGACAGACCAUUCUCUGAGAGAUUAACA	0.0144 ± 0.0049
AUCACUGUCACCUUCUCUCAGAGAUUAAGA	0.0515 ± 0.0097
UAGUGACUCACCUAGUCUGAGAGAUUAAGA	0.00421 ± 0.0041
UAGUGACACACCUUCUCUGAGAGAAUAACA	0.156 ± 0.032
UAGUCUUGUCACCUUCUCUGAGAGAUUAACA	0.686 ± 0.1
UAGUGUGUCACCUUCUCUGAGAGGAUUAACA	0.215 ± 0.023
UAGUCUGUCACCUUCUGUGAGAGAAUAACA	0.102 ± 0.014
UAGUGAGUCACCUUCUCUCAGAGAUUAUCA	0.0673 ± 0.015
UAGUGUGUGACCUUCUCUGAGAGAUUUACA	0.191 ± 0.022
AUCACUGACACCUACUCUGAGAGAUUAACA	0.435 ± 0.041
AUCACUGUGACCUUGUCUGAGAGAUUAACA	0.16 ± 0.025
UAGUGACAGACCUACUCUGAGAGAUUAACA	0.0213 ± 0.0051
UUCACUGUCACCUUCUCUGAGAGAAAUACA	0.179 ± 0.038
UAGUGACAGUCCUUCUCUGAGAGAUUAAGA	0.0171 ± 0.003
UAGUGACACACCUUCUCUGUGACAUUAACA	0.0527 ± 0.0094
UAGUGACUCACCUUCUCUAAGAGAUUAACA	0.309 ± 0.023
UAGUGAGUCACCUUCUCUGAGUCAUUAAGA	0.00562 ± 0.003
UAGUGUGUCACCUUCUCUGAGAGUUAUUGA	0.128 ± 0.039
UACACUGUCACCUUCUGUGAGAGAUUAUGA	0.0196 ± 0.0073
UAGACUGUCAACUUCUCUGAGAGAUUAACA	0.726 ± 0.049
UAGUGACACACCUUCAGUGAGAGAUUAACA	0.0157 ± 0.0053
UAGACUGUCUCCAUCUCUGAGAGAUUAACA	0.639 ± 0.049
UUCACUGUCACCUACUCUGAGAGAUUUACA	0.385 ± 0.051
UUCACUGACACCUUCUCUGAGAGUUUAACA	0.591 ± 0.11

Sequence	pre-steady-state target cleavage rate
UUCACUGUCACGUUCUCUGAGAGAUUAAGA	0.117 ± 0.018
UACACUGUCACCUUGACUGAGAGAUUAAGA	0.00874 ± 0.0072
UAGACAGUCACCUUCUCUGAGAGAUAAACA	0.397 ± 0.041
UACACUGUGACCUUGUCUGAGAGAUUAACA	0.0711 ± 0.013
UUCACUGUCACCUUCUCUGAGAGUAAUUGA	0.299 ± 0.086
UAGUGAGUCACGUUCUCAGAGAGAUUAACA	0.171 ± 0.017
UAGUGACACACCUUCUCUGAGAGAUUAAACA	0.458 ± 0.044
UAGUGACACACCGUUCUCUGAGAGAUUAACA	0.239 ± 0.02
UAGUCUGACACCUUCUCUGAGAGAUUAAGA	0.133 ± 0.019
UACACUCUCACCUUCUCUGAGAGAUUUUGA	0.0675 ± 0.013
UAGUCUGUCACCUUCUCUGAGAGAUCUAACA	0.289 ± 0.049
AUCACUGUCACCUUCUGUGAGAGAUUAACA	0.644 ± 0.033
UAGUGAGUCACCUACUCUGAGAGAUUUACA	0.311 ± 0.055
UUCACUGUCACCUUCUCAGAGUGAUUAACA	0.0211 ± 0.0051
UAGUGAGUCGACCUUCUCUGAGAGAUUAACA	0.156 ± 0.019
UAGUGAGACACCUUCUCUGAGAGAUUAAGA	0.0909 ± 0.019
UAGUGACAGAGCUUCUCUGUGAGAUUAACA	0.00703 ± 0.0036
UACGCUGUCACCUUCUCUGAGAGAUUAACA	0.745 ± 0.038
UAGUCUGUCACCUUCUCAGAGAGAAUAACA	0.0484 ± 0.01
UAGUGAGUCACCUUCUCUCAGAGAUUAACA	0.0958 ± 0.0087
UAGUGAGUCACCUUCUCUGAGAAGAUUAACA	0.0342 ± 0.0097
UAGUGACAGUCCUUCUCUGAGACUUUAACA	< 0.0001
AUCACUGUCACCUUCUCUGAGUAGAUUAACA	0.025 ± 0.0077
